{
  "source": "the supplement of paper PMC8728848",
  "binders": {"B1": {"name": "Gal 3 (Homo sapiens), P17931 (protein)", "chain": "MADNFSLHDALSGSGNPNPQGWPGAWGNQPAGAGGYPGASYPGAYPGQAPPGAYPGQAPPGAYHGAPGAYPGAPAPGVYPGPPSGPGAYPSSGQPSAPGAYPATGPYGAPAGPLIVPYNLPLPGGVVPRMLITILGTVKPNANSILDFQRGNDVAFHFNPRFNENNRRVIVCNTKLDNNWGREERQSVFPFESGKPFKIQVLVEPDHFKVAVNDAHLLQYNHRVKKLNEISKLGISGDIDLTSASYTMI"}},
  "assay_in_all_cases": "glycan array binding signal (z-score within array); higher = stronger binding",
  "details_in_all_cases": "glycan notation: IUPAC condensed, linker removed; mutation: R144S",
  "key": {"Gal(a1-3)GalNAc": {"target": "Gal(a1-3)GalNAc", "procedure,_shortened": "(§1)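 From the Consortium for Functional Glycomics database, 3228 arrays were curated, keeping only those whose protein sequence was available. Binding is given as a within-array Z-score averaged across arrays sharing a protein sequence and across linkers. Negative Z-scores can be read as non-binding.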"}, "[1]": {"target": "Gal(a1-3)[Gal(a1-4)]Gal(b1-4)GlcNAc", "procedure,_shortened": "as §1"}, "[2]": {"target": "Gal(a1-4)Gal(b1-3)GlcNAc(b1-2)Man(a1-3)[Gal(a1-4)Gal(b1-3)GlcNAc(b1-2)Man(a1-6)]Man(b1-4)GlcNAc(b1-4)GlcNAc", "procedure,_shortened": "as §1"}, "Gal(a1-4)Gal(b1-4)Glc": {"target": "Gal(a1-4)Gal(b1-4)Glc", "procedure,_shortened": "as §1"}, "Gal(a1-4)Gal(b1-4)GlcNAc": {"target": "Gal(a1-4)Gal(b1-4)GlcNAc", "procedure,_shortened": "as §1"}, "[3]": {"target": "Gal(a1-4)Gal(b1-4)GlcNAc(b1-2)Man(a1-3)[Gal(a1-4)Gal(b1-4)GlcNAc(b1-2)Man(a1-6)]Man(b1-4)GlcNAc(b1-4)GlcNAc", "procedure,_shortened": "as §1"}, "[4]": {"target": "Gal(a1-4)Gal(b1-4)GlcNAc(b1-3)Gal(b1-4)Glc", "procedure,_shortened": "as §1"}, "Gal(a1-4)GlcNAc": {"target": "Gal(a1-4)GlcNAc", "procedure,_shortened": "as §1"}, "Gal(a1-6)Glc": {"target": "Gal(a1-6)Glc", "procedure,_shortened": "as §1"}, "Gal(b1-2)Gal": {"target": "Gal(b1-2)Gal", "procedure,_shortened": "as §1"}, "Gal(b1-3)Gal": {"target": "Gal(b1-3)Gal", "procedure,_shortened": "as §1"}, "Gal(b1-3)Gal(b1-4)GlcNAc": {"target": "Gal(b1-3)Gal(b1-4)GlcNAc", "procedure,_shortened": "as §1"}, "[5]": {"target": "Gal(b1-3)Gal(b1-4)GlcNAc(b1-2)Man(a1-3)[Gal(b1-3)Gal(b1-4)GlcNAc(b1-2)Man(a1-6)]Man(b1-4)GlcNAc(b1-4)GlcNAc", "procedure,_shortened": "as §1"}, "Gal(b1-3)GalNAc": {"target": "Gal(b1-3)GalNAc", "procedure,_shortened": "as §1"}, "[6]": {"target": "Gal(b1-3)GalNAc(a1-3)[Fuc(a1-2)]Gal(b1-4)Glc", "procedure,_shortened": "as §1"}, "[7]": {"target": "Gal(b1-3)GalNAc(a1-3)[Fuc(a1-2)]Gal(b1-4)GlcNAc", "procedure,_shortened": "as §1"}, "[8]": {"target": "Gal(b1-3)GalNAc(b1-3)Gal(a1-4)Gal(b1-4)Glc", "procedure,_shortened": "as §1"}, "[9]": {"target": "Gal(b1-3)GalNAc(b1-4)Gal(b1-4)Glc", "procedure,_shortened": "as §1"}, "[10]": {"target": "Gal(b1-3)GalNAc(b1-4)[Neu5Ac(a2-3)]Gal(b1-4)Glc", "procedure,_shortened": "as §1"}, "Gal(b1-3)GlcNAc": {"target": "Gal(b1-3)GlcNAc", "procedure,_shortened": "as §1"}, "[11]": {"target": "Gal(b1-3)GlcNAc(a1-6)Gal(b1-4)GlcNAc", "procedure,_shortened": "as §1"}, "[12]": {"target": "Gal(b1-3)GlcNAc(b1-2)Man(a1-3)[Gal(b1-3)GlcNAc(b1-2)Man(a1-6)]Man(b1-4)GlcNAc(b1-4)GlcNAc", "procedure,_shortened": "as §1"}, "[13]": {"target": "Gal(b1-3)GlcNAc(b1-2)Man(a1-3)[Gal(b1-3)GlcNAc(b1-2)Man(a1-6)]Man(b1-4)GlcNAc(b1-4)[Fuc(a1-6)]GlcNAc", "procedure,_shortened": "as §1"}, "[14]": {"target": "Gal(b1-3)GlcNAc(b1-3)Gal(b1-3)GlcNAc", "procedure,_shortened": "as §1"}, "[15]": {"target": "Gal(b1-3)GlcNAc(b1-3)Gal(b1-4)Glc", "procedure,_shortened": "as §1"}, "[16]": {"target": "Gal(b1-3)GlcNAc(b1-3)Gal(b1-4)GlcNAc", "procedure,_shortened": "as §1"}, "[17]": {"target": "Gal(b1-3)GlcNAc(b1-3)Gal(b1-4)GlcNAc(b1-6)[Gal(b1-3)GlcNAc(b1-3)]Gal(b1-4)Glc", "procedure,_shortened": "as §1"}, "[18]": {"target": "Gal(b1-3)GlcNAc(b1-3)Gal(b1-4)[Fuc(a1-3)]GlcNAc(b1-6)[Gal(b1-3)GlcNAc(b1-3)]Gal(b1-4)Glc", "procedure,_shortened": "as §1"}, "[19]": {"target": "Gal(b1-3)GlcNAc(b1-3)GalNAc", "procedure,_shortened": "as §1"}, "[20]": {"target": "Gal(b1-3)GlcNAc(b1-6)Gal(b1-4)GlcNAc", "procedure,_shortened": "as §1"}, "[21]": {"target": "Gal(b1-3)[Fuc(a1-4)]GlcNAc", "procedure,_shortened": "as §1"}, "[22]": {"target": "Gal(b1-3)[Fuc(a1-4)]GlcNAc(b1-2)Man(a1-3)[Gal(b1-3)[Fuc(a1-4)]GlcNAc(b1-2)Man(a1-6)]Man(b1-4)GlcNAc(b1-4)GlcNAc", "procedure,_shortened": "as §1"}, "[23]": {"target": "Gal(b1-3)[Fuc(a1-4)]GlcNAc(b1-2)Man(a1-3)[Gal(b1-3)[Fuc(a1-4)]GlcNAc(b1-2)Man(a1-6)]Man(b1-4)GlcNAc(b1-4)[Fuc(a1-6)]GlcNAc", "procedure,_shortened": "as §1"}, "[24]": {"target": "Gal(b1-3)[Fuc(a1-4)]GlcNAc(b1-3)Gal(b1-3)[Fuc(a1-4)]GlcNAc", "procedure,_shortened": "as §1"}, "[25]": {"target": "Gal(b1-3)[Fuc(a1-4)]GlcNAc(b1-3)Gal(b1-4)GlcNAc", "procedure,_shortened": "as §1"}, "[26]": {"target": "Gal(b1-3)[Fuc(a1-4)]GlcNAc(b1-3)Gal(b1-4)[Fuc(a1-3)]GlcNAc", "procedure,_shortened": "as §1"}, "[27]": {"target": "Gal(b1-3)[GlcNAc(b1-6)]GalNAc", "procedure,_shortened": "as §1"}},
  "note": "Some of the results follow.",
  "data": [
    {"binder": "B1", "values": [
      {"measurement": "glycan array binding signal (z-score)", "setting": "Gal(a1-3)GalNAc", "value": -0.359},
      {"measurement": "glycan array binding signal (z-score)", "setting": "[1]", "value": -0.348},
      {"measurement": "glycan array binding signal (z-score)", "setting": "[2]", "value": -0.361},
      {"measurement": "glycan array binding signal (z-score)", "setting": "Gal(a1-4)Gal(b1-4)Glc", "value": -0.359},
      {"measurement": "glycan array binding signal (z-score)", "setting": "Gal(a1-4)Gal(b1-4)GlcNAc", "value": -0.359},
      {"measurement": "glycan array binding signal (z-score)", "setting": "[3]", "value": -0.35},
      {"measurement": "glycan array binding signal (z-score)", "setting": "[4]", "value": -0.326},
      {"measurement": "glycan array binding signal (z-score)", "setting": "Gal(a1-4)GlcNAc", "value": -0.354},
      {"measurement": "glycan array binding signal (z-score)", "setting": "Gal(a1-6)Glc", "value": -0.359},
      {"measurement": "glycan array binding signal (z-score)", "setting": "Gal(b1-2)Gal", "value": -0.358},
      {"measurement": "glycan array binding signal (z-score)", "setting": "Gal(b1-3)Gal", "value": -0.359},
      {"measurement": "glycan array binding signal (z-score)", "setting": "Gal(b1-3)Gal(b1-4)GlcNAc", "value": 0.189},
      {"measurement": "glycan array binding signal (z-score)", "setting": "[5]", "value": 3.83},
      {"measurement": "glycan array binding signal (z-score)", "setting": "Gal(b1-3)GalNAc", "value": -0.356},
      {"measurement": "glycan array binding signal (z-score)", "setting": "[6]", "value": 1.84},
      {"measurement": "glycan array binding signal (z-score)", "setting": "[7]", "value": 4.94},
      {"measurement": "glycan array binding signal (z-score)", "setting": "[8]", "value": -0.358},
      {"measurement": "glycan array binding signal (z-score)", "setting": "[9]", "value": -0.354},
      {"measurement": "glycan array binding signal (z-score)", "setting": "[10]", "value": -0.362},
      {"measurement": "glycan array binding signal (z-score)", "setting": "Gal(b1-3)GlcNAc", "value": -0.219},
      {"measurement": "glycan array binding signal (z-score)", "setting": "[11]", "value": -0.356},
      {"measurement": "glycan array binding signal (z-score)", "setting": "[12]", "value": 0.579},
      {"measurement": "glycan array binding signal (z-score)", "setting": "[13]", "value": 0.151},
      {"measurement": "glycan array binding signal (z-score)", "setting": "[14]", "value": 0.334},
      {"measurement": "glycan array binding signal (z-score)", "setting": "[15]", "value": 0.562},
      {"measurement": "glycan array binding signal (z-score)", "setting": "[16]", "value": 0.9},
      {"measurement": "glycan array binding signal (z-score)", "setting": "[17]", "value": 0.34},
      {"measurement": "glycan array binding signal (z-score)", "setting": "[18]", "value": 1.36},
      {"measurement": "glycan array binding signal (z-score)", "setting": "[19]", "value": -0.361},
      {"measurement": "glycan array binding signal (z-score)", "setting": "[20]", "value": -0.205},
      {"measurement": "glycan array binding signal (z-score)", "setting": "[21]", "value": -0.355},
      {"measurement": "glycan array binding signal (z-score)", "setting": "[22]", "value": -0.346},
      {"measurement": "glycan array binding signal (z-score)", "setting": "[23]", "value": -0.349},
      {"measurement": "glycan array binding signal (z-score)", "setting": "[24]", "value": -0.362},
      {"measurement": "glycan array binding signal (z-score)", "setting": "[25]", "value": 0.027},
      {"measurement": "glycan array binding signal (z-score)", "setting": "[26]", "value": -0.357},
      {"measurement": "glycan array binding signal (z-score)", "setting": "[27]", "value": -0.36}
    ]}
  ]
}
